Test results as given in PubChem BioAssay AID1963576 (National Center for Advancing Translational Sciences (NCATS), 2024).
Screen size: about 46,000 compounds; about 60 (0.1%) were called active. Another 3% or so got no clear call; they are omitted. Calls come from the whole dose curve; as a rule, active = well fitted inhibition curve with a large enough effect; inconclusive = small, poorly fitted or top-dose-only effect; inactive = no such curve, though single readings can be large or run the other way. The list shows a part of the results.

Assay: Primary qHTS assay for Inhibitors of ovarian cancer metastasis using an organotypic tumor microenvironment (TME) model.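 For activity change, negative = inhibition: plate controls were DMSO wells for no effect and tomatine positive control wells for full effect.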 Note: nearly all actives have a fitted effect of over 65% in size.
Settings: SKOV3ip1-GFP adhesion/invasion on 3D omental model, fluorescence; series mostly up to 45.8 µM; activity change, negative = inhibition: at the top concentration
Method in brief: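 qHTS, 4-pt dose (0.36-46 umol/L); SKOV3ip1-GFP, 1,200 cells/well, no FBS; primary omental fibroblast/mesothelial co-culture 48 h pre-grown; 2 h RT + 16 h 37 C; PBS wash, 4% PFA; GFP count 488/509 nm.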

Structure (SMILES)	activity change, negative = inhibition	outcome
CN(C)C=NC(=O)c1cc2c(n(-c3ccccc3)c1=O)CC(C)(C)CC2=O	inactive: 6.71%	–
O=c1n(Cc2cccc(F)c2)c2ccccc2c2nc(-c3ccccc3)nn12	–	inactive
COc1ccc(Cl)cc1NC(=O)C1CCN(c2nnc(C)c3c(C)n(-c4ccccc4)nc23)CC1	–	inactive
Cc1ccc(CN2CCSc3ccc(C(=O)NCCc4ccccc4)cc32)cc1	inactive: 5.51%	–
Cc1c(CC(=O)N2CCCCC2)c(=O)oc2c(C)c3occ(C(C)(C)C)c3cc12	–	inactive
CCOc1ccc(CCNC(=O)CSc2n[nH]c(-c3ccccc3)n2)cc1OCC	inactive: -0.187%	–
CCCCOc1ccc(C(C)NC(=O)c2cccc(Nc3nc4ccccc4n4nnnc34)c2)cc1 (stereo not drawn)	inactive: 0.323%	–
Cc1ccc(O)c(NC(=O)c2cc(-c3ccc4c(c3)OCO4)on2)c1	–	inactive
Cc1cccc(N2CCN(C(=O)c3ccc(CS(=O)c4cccc(Cl)c4)o3)CC2)c1C (stereo not drawn)	–	inactive
COc1ccc(CN(C(=O)Nc2cccc(Cl)c2)c2ccccn2)cc1OC	inactive: 0.523%	–
CN(C)c1cc2c(cc1NS(=O)(=O)c1ccccc1)n(C)c(=O)n2C	inactive: 5.26%	–
COc1cccc(CSc2nc3n(n2)C(c2cccc(F)c2)C(C(=O)Nc2ccccc2C)=C(C)N3)c1 (stereo not drawn)	inactive: 0.323%	–
COc1ccc(Cl)cc1NC(=O)CCS(=O)(=O)c1cccc2nonc12	inactive: -2.91%	–
Cc1ccc(-c2[nH]c3ccccc3c2SCCNC(=O)c2ccc(S(=O)(=O)N(C)C)cc2)cc1	inactive: 19.9%	–
CCSc1nnc2c(n1)OC(c1ccc(C)cc1)N(C(C)=O)c1ccccc1-2 (stereo not drawn)	–	inactive
COCCNC(=O)CCC(=O)N1Cc2cccc(OC)c2Oc2ncccc21	inactive: 4.97%	–
COc1ccc(CNC(=O)CCCN2C(=O)CSc3c2c(C)nn3-c2ccccc2)c(OC)c1	–	inactive
Cc1ccc(NC(=O)C(=O)NCC(c2cccnc2)N2CCOCC2)cc1Cl (stereo not drawn)	inactive: 3.73%	–
COc1ccc(C)cc1NC(=O)CCc1c(C)nn(-c2ccc(N3CCOCC3)nn2)c1C	inactive: 60.7%	–
O=C(Cc1ccc(Cl)cc1)Nc1nnc2n1CCS2	inactive: 29.3%	–
Cc1ccc(-n2nc(C)c3c(C)cc(=O)n(CC(=O)N4CCCc5ccccc54)c32)cc1	inactive: 2.16%	–
Cc1ccc(NC(=O)c2c(C)oc3ncnc(N4CCCCC4)c23)cc1Cl	inactive: 9.55%	–
CCn1cc(S(=O)(=O)c2cccc(Cl)c2)c(=O)c2cc(F)c(N3CCC(C)CC3)cc21	inactive: -1.92%	–
CCc1ccc(NC(=O)Cn2ccn(Cc3ccccc3OC)c(=O)c2=O)cc1	inactive: -9.41%	–

Structure (SMILES)	activity change, negative = inhibition	outcome
Cc1ccc(C2=Nc3ccc(Cl)cc3OC2)cc1	inactive: -1.11%	–
Cc1cc(C)c(NS(=O)(=O)c2ccc(-c3cnc(C4CC4)o3)cc2)c(C)c1	–	inactive
COc1ccc(NC(=O)C(=O)NCC2(c3ccc(OC)c(OC)c3)CCCC2)cc1	inactive: 1.82%	–
COc1cccc(CNC(=O)Cc2csc3ccccc23)c1OC	–	inactive
O=C(COCc1cc(-c2cccs2)on1)NCc1ccc(Cl)cc1	inactive: -9.32%	–
CCOc1ccc(N(CC)C(=O)C2CCN(S(=O)(=O)c3cccc4nonc34)CC2)cc1	–	inactive
COc1cc(NC(=O)Cn2nnc(-c3ccc(C(F)(F)F)cc3)n2)c(C(=O)O)cc1OC	inactive: -0.393%	–
CCCOC(=O)c1c(NC(=O)C2c3ccccc3Oc3ccccc32)sc2c1CCCC2	inactive: 1.41%	–
COc1ccc(NC(=O)CCCSc2nc(-c3ccco3)cc(C(F)(F)F)n2)c(OC)c1	inactive: 0.693%	–
COc1cccc(OCc2nc3ccccc3n2Cc2ccccc2C)c1	inactive: -1.84%	–
O=C(Cn1c(=O)oc2cc(S(=O)(=O)NCc3ccccc3)ccc21)Nc1ccc(F)c(Cl)c1	inactive: -1.81%	–
CCC(=O)n1nc(-c2cccnc2)nc1NCc1ccc(F)cc1	inactive: 3.84%	–
COc1ccc(CCC(=O)NC2CC(=O)N(c3cccc(F)c3)C2)cc1 (stereo not drawn)	–	inactive
O=C(NCCC1=CCCCC1)c1ccc2c(=O)n3nc(Nc4ccccc4)sc3nc2c1	inactive: 1.89%	–
O=C(Nc1ccccc1C(F)(F)F)c1ccc2oc(=O)c(S(=O)(=O)c3ccc(F)cc3)cc2c1	inactive: -7.91%	–
COc1ccc(NC(=O)c2c(NC(=O)COc3ccccc3)sc3c2CCC(C)C3)cc1 (stereo not drawn)	–	inactive
COc1ccc(-c2noc(CCC(=O)Nc3ccc(C(F)(F)F)cc3)n2)cc1	–	inactive
Cc1ccccc1CNC(=O)CN1C(=O)CSc2ccc(S(=O)(=O)N(C)C)cc21	inactive: -9.02%	–
COCCCNC(=O)c1cn(CCOC)c(=O)c2c1c1ccccc1n2C	inactive: -21.4%	–
Cc1ccc(NC(=O)CSc2nnc3[nH]c(=O)cc(-c4ccccc4)n23)cc1Cl	inactive: -5.39%	–
COc1ccc(CCNC(=O)Cc2c(C)c3c(cc(C)c4c(C)c(C)oc43)oc2=O)cc1	inactive: 1.33%	–
CC(=O)c1ccc(N2CCN(c3ncnc4c3nc3n4CCCC3)CC2)cc1	inactive: -1.56%	–
COc1ccccc1N1CCN(c2ncc3c(n2)CCN(Cc2ccccc2F)C3)CC1	inactive: -1.6%	–
Cc1ccc(CSc2oc(-c3cccs3)nc2S(=O)(=O)c2ccccc2)cc1	inactive: 1.19%	–
